Among the data in publication PMC5892938 are binding signal (log2 fold change) values, retold here.

Some of the results follow. The source does not settle which construct or isoform was used.

The target in the test is GST-SBP-ILF3 (Homo sapiens) (UniProt Q12906). As to the kind of experiment: targeted RNA Bind-n-Seq. Particulars: RBNS binding buffer: 25 mM Tris pH 7.5, 150 mM KCl, 3 mM MgCl2, 0.1% Tween, 0.5 mg/mL BSA, 1 mM DTT; 27 nM protein, 750 pM RNA pool; temperature not stated; high values mean tight binding; sequences stand for … in GGGUAAAAGCGAGGUGAA…CGGGACAAGUAUUAUGGG
Turning to “UUUUUUUUUUGAGACGGAGCCCGUCUCCUA [tttttgagapaired]”, the binding signal (log2 fold change) was determined as 0.773.
Then “UUUUUUUUUUGAGAGGGGAUCCCUUUCCUA [tttttgagapaired]”, with 0.0989.
Take “UUUUUUUUUUGAGAGCGGUACGCUCUCCGG [tttttgagapaired]”: the binding signal (log2 fold change) was found to be 0.106.
In the case of “UUUUUUUUUUGAGAUGGCAGCCAUCUUCUA [tttttgagapaired]”, the binding signal (log2 fold change) was 0.302.
Consider “GUGUGUUGUGUUGGUCUCUAACACAGCGCG [gtspaired]”, for which the binding signal (log2 fold change) was -0.732.
With “UUUUUUUUUUGAGAUGGUGACCAUUUCCGG [tttttgagapaired]”, the binding signal (log2 fold change) was determined as 0.588.
Regarding “GUGUUGUGUGUUGGCUCCUAACACACAACG [gtspaired]”, the binding signal (log2 fold change) was -0.362.
Then “UUUUUUUUUUGAGAUGGAUACCAUCUUCUA [tttttgagapaired]”, with -0.336.
“UUUUUUUUUUGAGAUGGACUCCAUCUUCUG [tttttgagapaired]”: the binding signal (log2 fold change) came to 0.249.
For the sequence “GUGUGGUGUGUUGGCGCCUAACACAUCACG [gtspaired]”, the binding signal (log2 fold change) is -0.596.
Next, “UUUUUUUUUUGAGAACGAGCCGUUCUCCAG [tttttgagapaired]”: 0.28; “UUUUUUUUUUGAGAUGGUUUCCGUCUCCUG [tttttgagapaired]”: 0.623.
Then “UUUUUUUUUUGAGAUCGGUGCGAUCUUCUA [tttttgagapaired]”, with 0.185; and “GUGUGUGGUGUUGGUCUCUAACACCGCAUA [gtspaired]”, with -0.93.
As for “GUUGGUGGUGUUGGUGUCUAACACCGCCGA [gtspaired]”, the binding signal (log2 fold change) was -0.684.
As to “UUUUUUUUUUGAGAGCGGAUCGCUCUCCAG [tttttgagapaired]”, the binding signal (log2 fold change) was found to be 0.331.
Next, “GGUGGUGGUGUUGGCGUCUAACACCAUCGC [gtspaired]”: -0.371.
For “UUCUCUCUUCCUCCGAGGGAGGAGGGGAGA [ctspaired]”, the binding signal (log2 fold change) was -0.127.
As for “UUUUUUUUUUGAGACGGGAACCGUCUCCUG [tttttgagapaired]”, the binding signal (log2 fold change) stood at 0.511.
Then “UUUUUUUUUUGAGAGGGGCUCCCUCUCCUG [tttttgagapaired]”, with 0.797; and “UUUUUUUUUUGAGAACGUAGCGUUCUCCGG [tttttgagapaired]”, with 0.218.
In the case of “GGUUGGUGUGUUGGCACCUAACACACUAAC [gtspaired]”, the binding signal (log2 fold change) is -0.479.
Regarding “UUUUUUUUUUGAGAUGGCCACCAUCUCCUA [tttttgagapaired]”, the binding signal (log2 fold change) came to 0.496.
Next, “UUUUUUUUUUGAGAGGGUAACCCUUUCCGG [tttttgagapaired]”: 0.23; “UUUUUUUUUUGAGACCGACACGGUCUCCGG [tttttgagapaired]”: 0.288; “GGUUGUUGUGUUGGCGCCUAACACAACGAC [gtspaired]”: -0.144.
Regarding “UUUUUUUUUUGAGACGGUGACCGUCUCCAG [tttttgagapaired]”, the binding signal (log2 fold change) came out at 0.377.
Consider “GGUGUUGGUGUUGGACUCUAACACCGACGC [gtspaired]”, for which the binding signal (log2 fold change) was -0.5.
